Experimental data reported in the supplement of paper PMC3334620.
The full ranking holds about 33,000 sequences; the median of “E-score (-0.5 to 0.5)” is about -0.035, and the highest 2% start at about 0.34. This is one part of the list.

molecular target: T1, Mot3 (UniProt P54785); assay: PBM E-score (8-mer binding enrichment) (E-score (-0.5 to 0.5)); higher = stronger / more preferred TF binding; most listed sequences are background and not binding sites; settings: protein concentration: 200 nM; construct: GST-full length
T1 sequence: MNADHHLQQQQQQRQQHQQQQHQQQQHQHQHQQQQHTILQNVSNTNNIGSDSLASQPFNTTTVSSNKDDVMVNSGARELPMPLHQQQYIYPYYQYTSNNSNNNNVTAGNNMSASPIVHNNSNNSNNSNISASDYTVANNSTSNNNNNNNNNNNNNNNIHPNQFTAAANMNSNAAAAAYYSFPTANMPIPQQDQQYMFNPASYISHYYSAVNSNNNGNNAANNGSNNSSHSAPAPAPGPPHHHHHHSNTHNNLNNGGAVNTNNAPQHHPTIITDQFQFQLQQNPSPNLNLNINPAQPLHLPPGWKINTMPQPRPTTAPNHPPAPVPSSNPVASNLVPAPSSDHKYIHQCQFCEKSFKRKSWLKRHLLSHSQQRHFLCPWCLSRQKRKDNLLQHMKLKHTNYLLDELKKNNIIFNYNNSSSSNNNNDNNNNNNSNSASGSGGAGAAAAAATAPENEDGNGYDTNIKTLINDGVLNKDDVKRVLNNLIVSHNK
Procedure: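 Universal 'all 10-mer' protein binding microarrays (Agilent AMADID 015681) probed with GST-tagged S. cerevisiae TFs (full-length or DBD) made by in vitro transcription/translation (PURExpress), about 100-200 nM. Bound TF was detected with fluorescent anti-GST. Each ungapped 8-mer (which stands for itself and its reverse complement) is scored by the PBM enrichment score (E-score), a modified Wilcoxon-Mann-Whitney statistic from -0.5 to +0.5, computed with the Universal PBM Analysis Suite. Scale: above 0.35 generally sequence-specific binding.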

Row | Sequence | PBM E-score
1 | AGGCGCTA | 0.336
2 | CCGCCCAC | -0.195
3 | CTTGCACC | -0.177
4 | ACGCACAG | 0.108
5 | CACTCATG | -0.141
6 | GACATTCC | 0.0384
7 | AATGATTA | 0.183
8 | AAGGATCC | 0.136
9 | CGTCTCGA | -0.108
10 | GGCGACAC | -0.125
11 | GTCTATGA | 0.0543
12 | CCGGCAAG | -0.0693
13 | AAATATTG | -0.0284
14 | AGGCTAAA | 0.026
15 | CACCGTTA | 0.0483
16 | GGCGGGTA | -0.1
17 | AAGGATGT | 0.189
18 | AGTTCATC | -0.194
19 | GCGATGCA | -0.283
20 | GAAGATCA | -0.112
21 | AACGTTAC | 0.17
22 | AACTATAC | 0.0404
23 | GCCAGGTA | 0.105
24 | CCAGGCTC | 0.0491
25 | AAGATCAC | -0.0705

Row | Sequence | PBM E-score
26 | GAGAGCCA | -0.194
27 | CCGGGTTC | -0.11
28 | TATCCGAA | -0.122
29 | ACCGACAT | 0.108
30 | GTCGCGAA | -0.0793
31 | ACCAAACC | -0.134
32 | CGAACAGA | -0.00591
33 | CGAGGATC | -0.106
34 | AAGGGCTA | -0.171
35 | GGGTGACC | -0.156
36 | CCTGGGAG | -0.125
37 | AAACCCGG | -0.154
38 | AATTTCTA | 0.206
39 | GTGCCCCA | -0.248
40 | GGGCGATA | -0.21
41 | CAGATAAA | -0.0331
42 | TCAGACAA | 0.0569
43 | ATGTCCTG | -0.014
44 | AAAATCAT | 0.109
45 | AATGGAGT | -0.128
46 | ACCTAGCT | -0.15
47 | GACCACCA | -0.228
48 | AGGTCTTC | -0.0921
49 | GATCTTTA | 0.121
50 | ATTGGATG | -0.054

Row | Sequence | PBM E-score
51 | GGCCATTA | -0.0685
52 | ACGCGATA | 0.233
53 | CAGTTGGC | -0.221
54 | CACATACG | 0.0727
55 | CGTGTACC | 0.277
56 | AATCGCAG | -0.072
57 | CGGTCTGA | -0.216
58 | AATATCGG | -0.13
59 | GTTGCCAA | -0.074
60 | ATTAGTCA | 0.016
61 | AAGCAGCA | -0.26
62 | AGAAATGC | 0.042
63 | ACTATTAA | 0.079
64 | ATTCTGGA | 0.145
65 | CGAGGAAC | 0.285
66 | ACTATACT | -0.102
67 | TTCCCCAA | -0.155
68 | CAAGTTAA | 0.185
69 | CTATCATA | 0.037
70 | AAACGACT | -0.241
71 | CCCATTTC | -0.225
72 | GTGCGCTA | 0.0394
73 | AAATAGCT | -0.207
74 | CTGTTCAA | 0.0328
75 | CACGCTTC | 0.146

Row | Sequence | PBM E-score
76 | ATGGGAAT | -0.00809
77 | GCATGCCA | -0.264
78 | CAAAGGCA | 0.479
79 | TCGTCCAA | -0.0369
80 | TATTTTGA | 0.0358
81 | GCCATTTA | -0.0144
82 | CAGCATCA | -0.141
83 | AATGTTCG | -0.075
84 | CCAGGCCA | -0.29
85 | TAGACAAA | 0.00859
86 | CTGCATAC | 0.0831
87 | CCGTCCCC | -0.128
88 | ATACTTTA | 0.19
89 | ATCTCTAG | -0.173
90 | CCCAGCAG | -0.135
91 | AACTGGCA | -0.146
92 | CCGCATGC | -0.324
93 | CGGTACCC | -0.277
94 | GCGAATAC | 0.117
95 | AACAATGG | 0.019
96 | AACTCAAT | -0.0215
97 | CTTTGCGA | -0.125
98 | AAGGCCTA | -0.043
99 | ACCCTCTG | -0.219
100 | ACTTGACG | 0.134

Row | Sequence | PBM E-score
101 | GAAAGGTC | -0.0526
102 | GCATGTTA | 0.385
103 | CGTGTTAG | 0.354
104 | AGGACGAG | -0.152
105 | ACTCATAT | -0.0444
106 | AAAGTGGA | -0.0636
107 | CGCGCTTA | 0.143
108 | CATTTACA | 0.363
109 | CTAGTTTA | 0.0483
110 | AATTGTGT | 0.2
111 | GAGAGGCC | -0.158
112 | GGTTGATA | -0.00089
113 | GTACGTGA | 0.0568
114 | AGGAAGTG | -0.0976
115 | CCGACACC | -0.142
116 | ATGAAATG | -0.183
117 | GGCTGAAC | -0.0542
118 | GCGTCTTA | -0.0476
119 | ATACGGTG | -0.0532
120 | AACTACCT | 0.141
121 | CCGGTAAC | 0.00834
122 | GCGCAACA | 0.106
123 | ACGACGTA | 0.207
124 | CTAAAGCC | -0.0284
125 | ATAAGTTG | -0.00969

Row | Sequence | PBM E-score
126 | ATCAACAA | 0.224
127 | ACGATGCC | -0.0597
128 | CCCTGACG | -0.273
129 | GAACCATC | -0.0773
130 | CACGCGGA | 0.118
131 | ATGTACAC | 0.338
132 | CCCGGGGC | -0.281
133 | AACTCAGT | -0.0694
134 | GCGGATAA | 0.0223
135 | GACCAAAA | -0.0431
136 | AATAGCTA | 0.078
137 | GGGGTAGA | -0.0141
138 | GCTCTTAA | 0.0678
139 | CCTGTGAA | 0.254
140 | GATAGTCA | -0.0444
141 | GTATGGAA | -0.156
142 | TACACAAA | 0.369
143 | CCACCCAG | -0.124
144 | CCGCCAAA | -0.179
145 | AACTACAC | 0.31
146 | CATATTCC | -0.102
147 | CAGGTACA | 0.406
148 | GGGCTCCA | -0.279
149 | ATCTATAA | -0.0231
150 | AAAGCATA | 0.13

Row | Sequence | PBM E-score
151 | CTTCGAGC | 0.117
152 | AAAATCTC | 0.109
153 | ATTCGCCA | -0.256
154 | GCCAAGAC | -0.186
155 | CTGACCAC | -0.141
156 | AGCCCTAG | 0.0768
157 | GCTAACCA | -0.114
158 | GGATTCAC | -0.0772
159 | ATTGGCTG | -0.202
160 | AGGCCTCC | -0.166
161 | CGGCTCAA | -0.102
162 | TCACCTCA | 0.031
163 | TATTGTAA | 0.215
164 | CGCCGGGC | -0.289
165 | GGAGGCCC | -0.266
166 | AAGTCGCT | -0.108
167 | GAGCTTAC | 0.0803
168 | CGTGATGA | -0.115
169 | ATGCTAAT | 0.115
170 | CATTAAAA | 0.242
171 | AATGTTGC | 0.145
172 | ATAGCAAT | 0.0903
173 | AAGTTGCG | 0.041
174 | CGGGGTTA | -0.126
175 | GGTTGCGA | -0.184

Row | Sequence | PBM E-score
176 | AGATTGGC | -0.163
177 | AAGGCCGC | -0.157
178 | CCCGCTCC | -0.381
179 | TATCGAGA | -0.0588
180 | AGAGCAGG | 0.018
181 | GGTAGCCA | 0.0673
182 | ACAAGACT | 0.0101
183 | CCCAGGGG | -0.322
184 | AAGCCTCC | -0.243
185 | GTGACAAC | -0.104
186 | CTTTCATA | 0.0855
187 | CAGGATAC | -0.0272
188 | TAGGGAAA | -0.0198
189 | CTGTGTAA | 0.41
190 | AATCATAT | 0.0169
191 | ACGGTTCG | -0.151
192 | GAAAGACC | -0.15
193 | CGACTCTC | -0.347
194 | CCGGCGCC | -0.232
195 | AAAATAGG | 0.267
196 | GAGATGAA | -0.0504
197 | GCTAGAGA | -0.211
198 | ATAGAGTG | -0.152
199 | CTATATCA | -0.111
200 | AAATTCGG | -0.12

Row | Sequence | PBM E-score
201 | GGTGGACA | -0.0311
202 | CTTGATTA | 0.0272
203 | AGATGAAC | 0.208
204 | ATGACCAG | 0.199
205 | AAAATGTA | 0.286
206 | ACGTTCGA | 0.0305
207 | CCGAAAAA | 0.121
208 | CCATACAA | 0.0803
209 | GTTCAGGA | -0.0132
210 | AAAAATCA | 0.0696
211 | GGGTGCGA | -0.237
212 | TGTTCAAA | 0.199
213 | AGGTGTCA | 0.0915
214 | CTTAGGAA | 0.29
215 | GAGACGAC | -0.217
216 | CAAATTAC | 0.274
217 | GTCTGGCA | -0.295
218 | AACTTAGG | 0.172
219 | ACGATAGG | 0.117
